The values below come from the supplement of paper PMC11417369.

± gives the standard deviation of the averaged measurements. The list shows a part of the results.

The subject of the assay is PfAP2-EXP AP2 domain (GST-tagged). Put plainly: gcPBM binding intensity (ln(normalized median fluorescence intensity)); higher = stronger DNA binding. The method, boiled down:
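Binding intensity is the highest Masliner-normalised natural-log median intensity over replicate spots in either probe orientation. To obtain it, GST-tagged P. falciparum DNA-binding domains made in E. coli were incubated for 1 h on an Agilent 4 × 180k array of primer-extended double-stranded 36-bp intergenic genomic probes plus negative controls. Detection used Alexa488 anti-GST antibody with scanning at 488 nm.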
As to “TTTAAATAATCTAGGTGTACTTTCCTTTATAAATGT [XGTACX_site7859]”, the “gcPBM binding intensity (ln)” value came to 8.35 ± 0.42.

As to “TATTTCAATATATACCTTTGCTTTTTTAATATACTT [XGTACX_negctrl_site556]”, the “gcPBM binding intensity (ln)” value came out at 8.56 ± 0.3. With “TCAATATAAATTAGTTGTACAGTTTTTTTTAATTAT [XGTACX_site6358]” the figure was 8.4 ± 0.38. Consider “AATATAAATAAAAACACACACAATGGTACCTATATA [CACACA_site7688]”, for which the “gcPBM binding intensity (ln)” value was 8.78 ± 0.51. Regarding “GTAAAATATATAAAATGTACATATATTATATATATA [XGTACX_site489]”, the “gcPBM binding intensity (ln)” value worked out at 8.825 ± 0.064. On to “TTTCTTTATTAAAATATTTTACATATATAATATACG [TGCATGCA_negctrl_site564]”, for which the “gcPBM binding intensity (ln)” value came to 8.64 ± 0.39.

In the case of “CATTTAAAAGATAAAACACACATACTAATAAAAAAC [CACACA_site5417]”, the “gcPBM binding intensity (ln)” value worked out at 8.96 ± 0.45. “ATCATTTTTAAAGGAACACACAAAAAAAATTAAAAT [CACACA_site4878]”: the “gcPBM binding intensity (ln)” value was found to be 8.67 ± 0.68. With “ACATATATTATTATATGTACATATATTAATTATATA [XGTACX_site3400]” the figure was 8.32 ± 0.35; with “ACTCTCTTATATTAAACACACATATATATCTGTATA [CACACA_site5489]”, 8.79 ± 0.41; with “CTTCTCTTTTTTATCATGCACTTTTTGTATAATAAT [GTGCAC_site9834]”, 9.13 ± 0.43.

Regarding “ATTTATATGTGGAGCAGTACGCACTCTCACAATTAA [XGTACX_site7252]”, the “gcPBM binding intensity (ln)” value turned out to be 8.56 ± 0.28.

For “TAAAAATTATATATCACACATATATGTCAGTATACA [CACACA_site4624]”, the “gcPBM binding intensity (ln)” value was found to be 8.43 ± 0.37. As for “GATGTTCATCACTACACACACAAAGAAATATATATA [CACACA_site2684]”, the figure is 8.66 ± 0.35.

For the sequence “TTGTATTTCCTTAGGAGTACACATAAATAAGTAAAT [XGTACX_site6677]”, the “gcPBM binding intensity (ln)” value is 8.59 ± 0.31.

Turning to “AAAGAAAAAAAATATAAAAAATAAAAAATAAAACAA [CACACA_negctrl_site374]”, the “gcPBM binding intensity (ln)” value worked out at 8.48 ± 0.63.

Turning to “TAATATATGTATATATGTACATATAAATGTTATAGA [XGTACX_site2721]”, the “gcPBM binding intensity (ln)” value was 8.59 ± 0.36.

As to “TTGGTATAAAATTATAGTACATAAGGTAAATATAAA [XGTACX_site4698]”, the “gcPBM binding intensity (ln)” value came to 8.56 ± 0.33. “TATTTAAATTTTAAGTGTACATATTTATTTATATCT [XGTACX_site6545]”: the “gcPBM binding intensity (ln)” value turned out to be 8.49 ± 0.28. Turning to “AACTTAAAAAATAAATGTACATAAATATAAACATAT [XGTACX_site2987]”, the “gcPBM binding intensity (ln)” value came out at 8.68 ± 0.4.

With “AAAAAAAAAAAAATCACACATAATATAGAATATGTA [CACACA_site4993]”, the “gcPBM binding intensity (ln)” value was found to be 8.12 ± 0.45. With “ATATATATATATATAACACACGCAAAAAAATTAAAT [CACACA_site8395]”, the “gcPBM binding intensity (ln)” value was determined as 10.2 ± 0.26.

Regarding “AAAATGAATAAAAATACACACATATCTGTTATTCTC [CACACA_site5474]”, the “gcPBM binding intensity (ln)” value is 8.17 ± 0.41. With “GAATATTAATTCATACGTACTTATATATAAGTATAT [XGTACX_site3707]”, the “gcPBM binding intensity (ln)” value stood at 8.45 ± 0.31. On to “TCACTATAATAATTTACACACATTTTAAGAAAATGT [CACACA_site3530]”, for which the “gcPBM binding intensity (ln)” value came to 8.33 ± 0.34.

On to “TATAAAAATGGGCACACACACACATATATATATTTA [CACACA_site1527]”, for which the “gcPBM binding intensity (ln)” value was 8.59 ± 0.55. Consider CCTTTTTATCTTTTTGTGCACAGACCTTTTTTAAAT, for which the “gcPBM binding intensity (ln)” value was determined as 9.23 ± 0.23. As to “ATGTAAGTTGTGCATTCACACACATATATATATATA [CACACA_site9086]”, the “gcPBM binding intensity (ln)” value was 10.2 ± 0.2. For the sequence “ATATAATAATAAAGACGTACAAATGTATATATATAC [XGTACX_site3123]”, the “gcPBM binding intensity (ln)” value was 8.98 ± 0.4. With “ATTTTTTTTTTTTTTTTTTTTTTATTCTTGTAATCT [CACACA_negctrl_site1039]” the figure was 7.99 ± 0.59; with “AAAAAAAAAAAAAACATACACACAATAAAATAGGGG [CACACA_site2398]”, 8.86 ± 0.35; with “CATTTTTTATTTCCTTGTACGAATAAAATATATTTA [XGTACX_site6844]”, 8.65 ± 0.35. Take “AATTTAATATAATGCACACATAAAACAAAAACAAAA [CACACA_site529]”: the “gcPBM binding intensity (ln)” value is 8.97 ± 0.042. As for “TACGTAAATGTGTGTGTGCACGTTATATATTAATAT [GTGCAC_site9976]”, the figure is 9.075 ± 0.049; as for “TATTATCGTTCTCATACACACAAAATATACATACAC [CACACA_site2643]”, 8.9 ± 0.46; as for “TTATAATAATATAATACATGCATATATATTTAAATA [TGCATGCA_site903]”, 8.6 ± 0.42. As for “ATGGCCTCATTTGGGACACACAACATAAAATATATA [CACACA_site753]”, the figure is 8.65 ± 0.7; as for “AATACACTAAACAAAAGTACAAAAATATTCTACAAA [XGTACX_site5162]”, 8.42 ± 0.48; as for ATAAACATATAAAAAGTGCATATTCATATATCTACT, 8.41 ± 0.21.

On to “TGTTAATTATAAATTTGTACTTATTTTTACAAAATA [XGTACX_site6598]”, for which the “gcPBM binding intensity (ln)” value turned out to be 8.38 ± 0.3. With “AAATATATTTTATGTACACACAAAATTAAGGGATAT [CACACA_site4881]” the figure was 8.79 ± 0.33. As for “ATATGACATAAAACATGTACATGTTCATAAATATAT [XGTACX_site1923]”, the “gcPBM binding intensity (ln)” value was 8.85 ± 0.21. As for “ATAAATATTAAAAGTACACACAGATACACTAATTAT [CACACA_site1808]”, the figure is 8.69 ± 0.4. For the sequence “TGAGTACACAATAATACATGCAATTCCTATGAATAT [TGCATGCA_site851]”, the “gcPBM binding intensity (ln)” value came to 8.88 ± 0.26.
